B1: TPR 5TU (parent)
chain: GGAUCUUCUCGAUCUAACAAAAAAGACAAAUCUGCCACAAAGCUUGAGAGCAUCUUCGGAUGCAGAGGCGGCAGCCUUCGGUGGCGCGAUAGCGCCAACGUUCUCAACUAUGACACGCAAAACGCGUGCUCCGUUGAAUGGAGUUUAUCAUG

Variants at the floor of the assay are shown more often than the library holds them.

The variants in the data set derive from B1. Nature of the data set: polymerase ribozyme fitness, log enrichment relative to wild type (log ratio); higher = more active; in vitro selection for triplet polymerase activity. The method, boiled down:
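Genotype fitness is the logarithm of its enrichment divided by wild-type enrichment, using inverse-variance-weighted averages of replicates. That logarithm is base 2. Enrichment was measured by Illumina sequencing of input and output libraries from one triplicate in vitro selection round, with frozen incubation at −7 °C, on PCR-built, transcribed mutant libraries of each subunit of a heterodimeric triplet polymerase ribozyme, retaining genotypes with ≥10 input reads and ≥1 read per output.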
As to GGAUCUUCUCGAUUUAACAAAAAAGACAAAUCUGCCACAAAGCUUGAGAGUCACUUCGGAUGCAGAGGCGGCAGCCUUCGGUGGCGCGAUAGUGCCGACGUUCUCAACUAUGAUACUCAAGACGCGUGCUCCGUUGUAUGGAGUUUAUCAUG [C14U C51U A52C U53A C93U A97G C114U G117U A121G A137U], the “polymerase ribozyme fitness (log ratio)” value was at most -4.2.

Take GGAUCUUCUCGAUUCAACAACAAAGACAAAUCUGCCACAAAGCUUGAGAGCAUCUUCGGAUGCAGAGGCGGCAGCCUUCGGUGGCGCGAUAGCGCAAACGUUCUCAACUAUGAAACGCAAAACGCGUGCUCCGUUGAAUGGAGUUUAACAUG [C14U U15C A21C C96A C114A U148A]: the “polymerase ribozyme fitness (log ratio)” value is at most -4.2.

GGAUCUUCUCGAUUUAACAAAAAAGACAAAUCUGUCACAAAACUUGAAAGCAUCUUCGGAUGCAGAGGUGGCAGUUUUCGGUGGUGCGAUAGCGCCAACGUUCUCAACUUUGACACGCAAAACGCGUGCUCCGGUGAAUGCAGUUUAUCCUG [C14U C35U G42A G48A C69U C75U C76U C85U A110U U134G G141C A150C]: the “polymerase ribozyme fitness (log ratio)” value is at most -4.2.

Consider GGAUCUUCUCGAUUUAACAAAAAAGACAAAGCUGCCACAAAGCUUGAGAGCAUCUUCGGAUGCAGAGGCGGCCGCCUUCGGUGGCGCGAUAUCGCCAACGUUCUCAACUAUGACACGCAAAACGCGUGCUCCGUUGAAUGGAGUUUAUCAUG [C14U U31G A73C G92U], for which the “polymerase ribozyme fitness (log ratio)” value is at most -4.2.

In the case of GGAUCUUCUCGAUUUAACAAAAAAGACAAAUCUGCCACAAAGUUUGAGAGGAUCUUCGGAUGCAGAGGCGGCAGCCUUCGGUGGCGCGAUAGCGCCAACGUUCUCAACUAUGACACGCAAAACGCGUGCUCCGUUGAAUGGAAUUUAUCAUG [C14U C43U C51G G143A], the “polymerase ribozyme fitness (log ratio)” value was at most -4.2.

For the variant GGAUCUUCUCGAUUUAACAAAAAAGACAAAUCUGCCACAAAGCUUGAGAGCAUCUUCGGAUGCAGAGGCGGCAGCCUUCGGUGGUGCGAUAGCGCCAACGUGCUCAACUAUGACACGCAAAACGCGUGCUCCGUUGAAUGGAGUUUAUCAUG [C14U C85U U102G], the “polymerase ribozyme fitness (log ratio)” value was at most -4.2.

As for GGAUCUUCUCGAUUUAACAAAAAAGACAAAUCUGCCACAAAGCUUGAGAGCAUCUUCGAAUGUAGAGGCGGCAGCGUUCGGUGGCGCGAUAGCGCCAACGUUCUCAACUAUGACACGCAAAACGCGUGCUCCGUUGAAUGGAGUUUAUCAUG [C14U G59A C63U C76G], the “polymerase ribozyme fitness (log ratio)” value was at most -4.2.

Regarding GGAUCUUCUCGAUUUAACAAAAAACACAAAUCUGCCACAAAGCUUGAGAGCCUCUACGGAUGCAGAUGCGGCAGCCUUCGGUGGUGCGAUAGCGCCAACGUUCUCAACUAUGACCCGCAAAACGCGUGCUCCGUUGAAUGGAGUUUAUCAUG [C14U G25C A52C U56A G67U C85U A115C], the “polymerase ribozyme fitness (log ratio)” value was at most -4.2.

Consider GGAUCUUCUCGAUUUAACAAAAAAGACAAAUCUGCCACAAAACUUGCGAGCAUCUUCGGAUGCAGAGGCGGCAGCCGUCGGUGGCGCGAUAUCGCCAACGUUCUCAACUAUGACACGCAAAACGCGUGCUCCGUUGAAUGGAGUUUAUCAUG [C14U G42A A47C U77G G92U], for which the “polymerase ribozyme fitness (log ratio)” value was at most -4.2.

Take GGAUCUUCUCGAUUUAACAAAAAAGACAAAUGUGCCACAAAGCUUGAGAGCAUCUUCGGAUGCAGAGGCGGCAGCCUUCGGUGGCGCGAUAGUGUCAACGUUCUCAACUAUGACACGCCAAACGCGUGCUCCGUUGAAUGGAAUUUAUCAUG [C14U C32G C93U C95U A119C G143A]: the “polymerase ribozyme fitness (log ratio)” value is at most -4.2.

Take GGAUCUUCUCGAUUUAACAAAAAAGACAAAUCUGCCACAAAGCUUGAGAGCAUUUUCGGAUGCAGAGGCGGCAGCCUUCGGUGUCGCGAUAGCGCCACCGUUCUUGACUAAGACACGAAAAACGCGUGCUCCGUUGAAUGGAGUUUAUCAUG [C14U C54U G84U A98C C105U A106G U111A C118A]: the “polymerase ribozyme fitness (log ratio)” value was at most -4.2.

For the variant GGAUCUUCUCGAUUUAACAAAAAACACAAAUUUGCCACAAAGCUUGAGAGCAUCUUCGCAUGCAGAGGCGGCAGCCGUCGGUGGCGCGAUAGCGCCAACGUUCUCAACUAUGACACGCAAAACGCGUGCUCCGUUGAAUGGAGUUUAUCAUG [C14U G25C C32U G59C U77G], the “polymerase ribozyme fitness (log ratio)” value was at most -4.2.

Consider GGAUCUUCUCGAUUUAACAAAAAAGACAAAUCUGCCACAAACCUUGAGAGCAUCUUCGGGUGCAGAGACGGCAGCCUUCGGUGGCGCGAUGGCGCCAACGUUCUCAACUAUGACAUGCAAAACGCGUGCUCCGUUGAAUGGAGUUUAUCAUG [C14U G42C A60G G68A A91G C116U], for which the “polymerase ribozyme fitness (log ratio)” value is at most -4.2.

For the variant GGAUCUUCUCGAUUUAACAAAAAAGACAAAUCUGCCACAAAGCUUGAGACUAUCUUCGGAUGCAGAGGCGGCAGCCUUCGGUGGCGCGAUAGCGCAAACGUUCUCAACUAUGACACGCAAAACGGGUGCUCCGUUGAAUGGAGUUUAUCAUG [C14U G50C C51U C96A C125G], the “polymerase ribozyme fitness (log ratio)” value was at most -4.2.

As for GGAUCUUCUCGAUUUAACAAAAAAGACAAAUCUGCCACAAAGCUUGAGAGAAUCUUCGGAUGCAGAGGCGGCAGCCUUCGGUGUCGCGAUAGCGCCAACGUUCUCAACUAUGACACGCAAAACGCGUGCUCCGAUGAAUGGAGUUGAUCAUG [C14U C51A G84U U134A U146G], the “polymerase ribozyme fitness (log ratio)” value is at most -4.2.

In the case of GGAUCUUCUCGAUUUAACAAAAAAGACAAAUCUGCCACAAAGCUUGAGAGCAUCUUCGGAUGCAGAGGCGGCAGCCUUCGGUGGCGCGAUAGCGCUAACGUUCUCAACUAUGACACGCAAAACGCGUUCUCCGUUGGAUGGAGUUUAUCAUG [C14U C96U G128U A137G], the “polymerase ribozyme fitness (log ratio)” value is at most -4.2.

Take GGAUCUUCUCGAUUUAACAAAAAAGACAAAUCUGCCACAAAGCUUGAGAGCAUCUUCGGAUGCAGAGGCGGCAGCCUUCGGUGACGCGAUAGCGCCAACGUUCUCAAGUAUAACACGCAAAACGCGUGCUCCGUUGAAUGGAGUUUAUCAUG [C14U G84A C108G G112A]: the “polymerase ribozyme fitness (log ratio)” value was at most -4.2.

In the case of GGAUCUUCUCGAUUUAACAAAAAAGACAAAUCUGCCACAAAGCUUGAGAGCAUUUUCCGAUGCAGAGGCGGCAGCCUUGGGUGGCGUGAUAGCGCCAACGUUCUCAACUAUGACACGCAAAACGCGUGCUCCGUUGAAUGGAGUUUUUCAUG [C14U C54U G58C C79G C87U A147U], the “polymerase ribozyme fitness (log ratio)” value was at most -4.2.

For the variant GGAUCUUCUCGAUUUAACAAAAAAGACAAAUCUGCCACAAAGCUUGAGAGCAUCUUCGGAUGCAGAGGCGGCAGCCUUCCGUGGCGCGAUCGCGCCAACGUUCUCAACUAUGCCACGCAAAACGCGUGCUCCGUUGAAUGGAGUUUAUCAUG [C14U G80C A91C A113C], the “polymerase ribozyme fitness (log ratio)” value is at most -4.2.

The values are drawn from the RNAGym collection of RNA variant scans (doi:10.1073/pnas.2313332121).
